The other results are listed elsewhere or left out. The full chains were built here from the parent and the listed change. Values near 0.05 are background.
B1: TEV protease; numbered along this chain (parent)
chain: MGESLFKGPRDYNPISSSICHLTNESDGHTTSLYGIGFGPFIITNKHLFRRNNGTLVVQSLHGVFKVKDTTTLQQHLVDGRDMIIIRMPKDFPPFPQKLKFREPQREERICLVTTNFQTKSMSSMVSDTSCTFPSGDGIFWKHWIQTKDGQCGSPLVSTRDGFIVGIHSASNFTNTNNYFTSVPKNFMELLTNQEAQQWVSGWRLNADSVLWGGHKVFMVKPEEPFQPVKEATQL

Variants of: B1
Assay: raw area under fraction-flipped curve 0-4 h after induction (AUC4h, not background-subtracted), DNA-recorder readout of cleavage of the substrate (dimensionless); higher = more cleavage of the substrate by the protease variant
Conditions: temperature: 34 °C; time window: 0-4 h after rhamnose induction
Description: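 In vivo DNA recorder in E. coli TOP10(DE3) ΔrhaA at 34 °C. Each TEVp single-site mutant (parent TEVp 0) is paired with a single-site variant of the 7-mer TEVs (canonical ENLYFQ|S). The substrate sits between flexible linkers in a Bxb1-sfGFP-TEVs-SsrA fusion, so cleavage stabilises Bxb1 and speeds flipping of a recombination array, read by NGS. The value is the raw area under the fraction-flipped curve over 0-4 h after rhamnose induction (AUC4h), with ≥20 reads per time point. It is not background-subtracted; inactive controls average about 0.047.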
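Further: Bxb1 expression induced with 0.2% (w/v) L-rhamnose at OD600 near 0.5, cultures sampled hourly, flipped fraction per protease–substrate barcode pair counted by paired-end Illumina sequencing.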

Variant | area with substrate ENLYFAS | area with substrate ENLYFCS | area with substrate ENLYFES | area with substrate ENLYFFS | area with substrate ENLYFGS | area with substrate ENLYFHS | area with substrate ENLYFIS | area with substrate ENLYFKS | area with substrate ENLYFMS | area with substrate ENLYFNS | area with substrate ENLYFPS | area with substrate ENLYFRS | area with substrate ENLYFSS | area with substrate ENLYFTS | area with substrate ENLYFWS | area with substrate ENLYFYS | area with substrate ENLYFDS | area with substrate ENLYFLS | area with substrate ENLYFVS
T192N | 0.0564 | 0.0571 | 0.0614 | 0.0601 | 0.0555 | 0.0745 | 0.0526 | 0.0724 | 0.0611 | 0.0671 | 0.0498 | 0.0618 | 0.0503 | 0.0622 | 0.0557 | 0.0777 | – | – | –
A232R | 0.0586 | 0.0596 | 0.0632 | – | – | 0.0556 | 0.0572 | 0.003 | 0.0769 | 0.0651 | 0.0591 | 0.0638 | – | 0.0594 | – | – | 0.0663 | 0.0645 | –
S32T | 0.0613 | 0.0584 | 0.0776 | 0.0634 | – | – | 0.0584 | 0.058 | 0.0754 | 0.0656 | 0.0643 | 0.0536 | 0.062 | 0.0645 | 0.065 | 0.0552 | – | – | 0.0579
E224Q | 0.0465 | 0.0596 | 0.073 | – | 0.051 | – | 0.0568 | 0.0563 | 0.0553 | 0.0551 | 0.0637 | 0.014 | 0.0632 | 0.0647 | – | – | – | 0.0635 | 0.0566
N24S | 0.0519 | 0.0669 | 0.0981 | – | – | – | 0.058 | 0.0551 | 0.0624 | 0.0668 | 0.0562 | 0.0655 | 0.0819 | 0.0598 | – | 0.0582 | 0.0615 | 0.0631 | –
N24V | 0.0522 | 0.058 | 0.0581 | 0.0645 | 0.0551 | 0.053 | 0.0634 | 0.0583 | 0.074 | 0.0684 | 0.0614 | 0.0619 | 0.0568 | 0.0559 | 0.0443 | 0.0511 | 0.0511 | 0.0929 | 0.0541
L77F | 0.0555 | 0.0426 | 0.058 | 0.0704 | – | 0.0852 | 0.0639 | 0.069 | 0.0522 | 0.054 | 0.0596 | – | 0.0574 | 0.0565 | 0.0522 | 0.044 | 0.0571 | – | 0.0536
I145R | 0.0492 | 0.0737 | 0.0681 | 0.0635 | – | – | 0.0613 | – | 0.0649 | 0.0551 | 0.0031 | 0.0717 | – | 0.0546 | 0.0443 | 0.0589 | 0.0557 | 0.0445 | 0.0586
I42S | 0.0448 | 0.045 | 0.0525 | 0.0583 | 0.0597 | 0.0731 | 0.0424 | – | 0.0558 | 0.0471 | 0.0405 | 0.0424 | 0.0548 | 0.0376 | – | 0.0424 | – | 0.0485 | 0.0398
D208R | 0.092 | 0.0648 | 0.0609 | 0.0646 | 0.062 | 0.0473 | – | – | 0.0465 | 0.0411 | 0.0595 | 0.0592 | – | 0.0854 | 0.0517 | 0.0489 | 0.0523 | 0.0526 | 0.0501
Y12V | 0.0591 | – | 0.064 | 0.053 | 0.0802 | – | 0.0567 | 0.0676 | 0.0678 | – | 0.0545 | 0.0768 | 0.0554 | 0.05 | 0.0518 | – | 0.054 | – | –
K68R | 0.0602 | – | 0.0572 | 0.0714 | – | – | – | – | 0.0592 | – | 0.0574 | 0.0555 | 0.0504 | – | 0.0582 | – | 0.0618 | – | 0.0568
R160T | 0.0336 | – | – | – | – | – | 0.0557 | 0.0644 | 0.0612 | – | 0.0765 | 0.0679 | 0.064 | 0.0597 | – | 0.0617 | – | 0.0623 | –
L112K | 0.0567 | 0.0622 | 0.0753 | 0.0721 | – | 0.0509 | 0.0607 | 0.0601 | 0.0688 | 0.0707 | 0.0495 | 0.05 | 0.0535 | 0.0562 | 0.058 | 0.0581 | – | 0.0662 | 0.0643
L112D | 0.0576 | 0.0056 | 0.04 | – | 0.0466 | – | 0.0483 | 0.0648 | 0.0607 | 0.0559 | – | 0.0759 | – | – | – | – | – | – | 0.0549
T44R | 0.0361 | 0.0478 | 0.0545 | 0.0487 | – | 0.0594 | 0.0365 | 0.0528 | 0.0458 | 0.0424 | 0.0308 | 0.0341 | 0.0094 | 0.0504 | 0.0528 | 0.0213 | 0.0417 | 0.0601 | –
G138R | 0.0713 | – | 0.068 | 0.0393 | – | 0.0461 | 0.0523 | – | 0.0534 | 0.0609 | – | 0.0518 | – | – | – | 0.0602 | 0.0582 | 0.0619 | –
T176P | 0.0593 | 0.0564 | 0.0409 | – | 0.0874 | 0.0669 | 0.0613 | 0.0661 | 0.063 | 0.0626 | 0.0639 | 0.0568 | 0.055 | 0.0469 | – | 0.0522 | 0.0578 | – | 0.0458
V126T | 0.0497 | 0.0676 | 0.0613 | 0.0447 | 0.0521 | – | 0.061 | 0.0632 | 0.072 | 0.0566 | – | – | 0.0523 | 0.0494 | – | 0.0604 | – | 0.0529 | –
S201D | 0.0658 | 0.0569 | 0.0653 | 0.0599 | – | 0.0644 | 0.0646 | 0.0591 | 0.0769 | 0.0605 | 0.0617 | 0.0605 | – | 0.0637 | 0.0639 | – | – | 0.044 | 0.0721
P104R | 0.0497 | 0.0534 | 0.0537 | 0.0716 | 0.0618 | – | 0.0629 | 0.0583 | 0.0557 | – | 0.0566 | 0.041 | 0.0435 | 0.0475 | – | 0.0506 | – | 0.0395 | 0.054
P104H | 0.0453 | 0.0707 | 0.0428 | 0.0581 | 0.0335 | – | 0.0459 | 0.0497 | – | 0.0546 | 0.0541 | 0.0431 | – | 0.0573 | – | – | – | – | –
P104C | 0.0554 | 0.0695 | 0.0648 | 0.0683 | 0.0603 | 0.0547 | 0.0558 | 0.0593 | 0.0572 | 0.0611 | 0.0634 | 0.0606 | 0.0595 | 0.0057 | – | 0.0666 | 0.064 | – | –
D161Q | 0.0278 | 0.054 | 0.0557 | 0.0626 | 0.0636 | 0.0485 | 0.0429 | – | 0.0403 | – | 0.0515 | 0.0567 | 0.0396 | 0.0461 | – | – | 0.0505 | 0.052 | –

Reference: the supplement of paper PMC12217912
